Reference: PubChem BioAssay AID1508624 (National Center for Advancing Translational Sciences (NCATS), 2021)
In all, about 48,000 compounds went through this assay and about 120 (0.25%) were called active. About 4% were inconclusive and are not listed. The call rests on the fitted dose curve; in most records, active means well fitted activation curve with a large enough effect; inconclusive means small, poorly fitted or top-dose-only effect, or another doubt; inactive means no such curve, though single readings can be large or run the other way. The list shows a part of the results.

Test: Primary qHTS for Identification of Small Molecule Activators of Huntingtin-Antisense Promoter Activity; further: nearly all actives have a fitted effect of over 55% in size
Details: HEK293 HTT-AS promoter firefly luciferase reporter, 24 h; series mostly up to 57.5 µM; activity change, positive = activation: at the top concentration
Outline: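 Firefly luciferase signal from promoter-reporter HEK293 cells was scaled between vehicle (0%) and zero RLU (-100%). Compounds were tested at final concentrations of up to 57.5 uM over 24 h at 37 degrees C. PTC124 at 50 uM final served as control inhibitor.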

Activity change, positive = activation, inactive:
Cc1cc(NC(=O)Nc2nnc(N(C)C3CCCCC3)s2)ccc1Br -15.9%
COc1ccc(C(=O)N2CCC(c3nc4ccccc4s3)CC2)cc1Cl -31.7%
Cc1ccc2oc(C(=O)Nc3ccc(S(=O)(=O)N(C)c4ccccc4)cc3)cc(=O)c2c1 -0.477% [at 11.5 µM, percent change from vehicle, -100% = no light]
CN1C(=O)c2ccccc2C1=O -3.42% [at 116 µM, percent change from vehicle, -100% = no light]
Cc1cccc(NC(=O)Cn2ncc3c4ccccc4n(Cc4ccccc4)c3c2=O)c1C -6.88%
Cc1ccc(S(=O)(=O)CCC(=O)Nc2ccc(OC(F)(F)F)cc2)cc1 -16.1%
CC(CC1c2ccccc2CCc2ccccc21)CN(C)C (configuration not stated) -10.5%
CN(C)[C@@H]1C(=O)C(C(N)=O)=C(O)[C@@]2(O)C(=O)C3=C(O)c4c(O)cccc4C[C@H]3C[C@@H]12 -27.9%
CCOC(=O)O[C@]1(C(=O)OCCl)CC[C@H]2[C@@H]3CCC4=CC(=O)C=C[C@]4(C)[C@H]3[C@@H](O)C[C@@]21C -2.42%
CCc1ccccc1NC(=O)Cn1c(=O)n(CCCCCC(=O)NCc2ccc(C)cc2)c(=O)c2sccc21 -15.9%
COc1cc(Cl)c(C)cc1NC(=O)CSc1nc2c(c(=O)[nH]1)CCC2 -14.7%
CCC(Sc1nc2ccncc2[nH]1)C(=O)Nc1cc(Cl)ccc1C (configuration not stated) -24.1%
O=C(c1ccc2c(c1)N(Cc1ccccc1F)C(=O)c1ccccc1S2(=O)=O)N1CCc2ccccc21 -28%
COc1cccc(CNC(=O)c2ccc(CNS(=O)(=O)c3ccc(C)cc3)cc2)c1 -22.1%
CCN(c1ccccc1)S(=O)(=O)c1nnc(NC(=O)c2ccccc2)s1 -25.8%
O=C(Nc1ccccc1)N(Cc1c[nH]c2ccccc12)C1CCCCCC1 19.7%
Cc1cccc(OCc2nc(CC(=O)Nc3ccc(C)cc3C)cs2)c1 -14.5%
Cc1cccc(N2CCN(C(=O)c3cnn(-c4ccccc4Cl)c3C3CCN(C(=O)OC(C)(C)C)CC3)CC2C)c1 (configuration not stated) -7.07%
COc1ccc(S(=O)(=O)NCCc2sc(-c3cccnc3)nc2C)c(F)c1 -5.66%
CCc1ccc(C2c3c(oc4ccc(F)cc4c3=O)C(=O)N2CCc2ccc(OC)cc2)cc1 (configuration not stated) -10.1%
CC1CCc2c(sc3nnn(CCCCOc4ccc(Cl)cc4)c(=O)c23)C1 (configuration not stated) 0.288%
COc1ccc(CNCCCSc2nnnn2-c2ccccc2)cc1 -17.2%
Cc1ccc(CNC(=O)Cn2c(=O)ccc3cc(S(=O)(=O)N4CCC(C)CC4)ccc32)cc1 -30.9%
COc1ccc(-c2cc(C(=O)NC(C)c3ccccc3)c3cc(C(C)C)ccc3n2)cc1 (configuration not stated) 0%
CCOC(=O)c1c(NC(=O)c2cc(OCC)c(OCC)c(OCC)c2)sc2c1CCCCC2 -0.251%
CCN(CC)CCNC(=O)C(=O)NCC(c1cccnc1)N1CCN(c2ccc(F)cc2)CC1 (configuration not stated) -4.57%
CCc1cccc(CC)c1NC(=O)C1CCC(CNS(=O)(=O)c2cccc3nsnc23)CC1 (configuration not stated) -21.6%
COc1ccc2cc3cc(C(=O)Nc4cc(C)c(Cl)cc4OC)oc3nc2c1 0.331%
COc1ccc(NC(=O)CSc2oc(-c3ccc(F)cc3)nc2S(=O)(=O)c2ccc(C)cc2)c(OC)c1 -4.78%
CC(=O)c1cccc(NS(=O)(=O)c2cc(-c3onc(C)c3C)ccc2C)c1 -48.2%
CCc1cc2c(cc1N1CCC(N3CCOCC3)CC1)C(C)(C)c1[nH]c3cc(C#N)ccc3c1C2=O 0.979%
COc1cc(Cl)c(NC(=O)c2cc(S(=O)(=O)N3CCCCC3)c[nH]2)c(OC)c1 -27.6%
Cc1sc2c(c1C)c(=O)n(-c1ccc(Cl)cc1)c(=O)n2Cc1cc(=O)n2cc(Br)ccc2n1 8.11%
CCOC(=O)c1c(S(=O)(=O)N2CCCC(C(=O)NCc3ccccc3Cl)C2)c(C)n(C)c1C (configuration not stated) 1.29%
COc1cc(NC(=O)C2CCN(S(=O)(=O)c3ccc4c(c3)CCCC(=O)N4)CC2)cc(OC)c1 -19%
CCOc1ccccc1NC(=O)CSc1nc2c(sc3ccccc32)c(=O)n1CCCC(=O)NC1CCCC1 -25.1%
Cc1cccc(NC(=O)c2ccc3c(O)c(S(=O)(=O)c4ccccc4)c(=O)[nH]c3c2)c1C -10.2%
O=C(Nc1ccc2nc(SCC(=O)N3CCc4ccccc43)sc2c1)c1cccc(F)c1 -28.5%
Cc1ccccc1-c1nc(CS(=O)(=O)CC(=O)NCCc2ccccc2)c(C)o1 -29.4%
Cc1ccc(C(=O)N2CCc3cc(CNC(=O)c4ccc(Br)cc4)ccc32)cc1 -43.7%
Clc1cc(Cl)cc(CNc2ncncc2-c2ccc3c(c2)OCO3)c1 -32.3%
COCCNC(=O)CCn1c(=O)c2cc(OC)c(OC)cc2n(CC(=O)Nc2ccccc2C)c1=O -2.76%
CS(=O)(=O)NCC(c1ccco1)N1CCN(c2ccc(F)cc2)CC1 (configuration not stated) -10.1%
O=S(=O)(c1ccc(-c2cc(C(F)(F)F)on2)s1)N1CCN(c2ccccc2)CC1 -4.67%
COc1ccc(S(=O)(=O)N2CCN(Cc3ccc4c(c3)OCO4)CC2)cc1C -2.2%
CCOC(=O)c1cnc2c(Cl)cc(Cl)cc2c1Nc1cc(C(=O)O)ccc1C -26.4%
Cc1cccc(C)c1NC(=O)C(=O)NCC(c1ccc2c(c1)OCO2)N1CCOCC1 (configuration not stated) -17%
Cc1c(Cl)cccc1NC(=O)CNS(=O)(=O)c1cccs1 -2.25%
Cc1nc2sccn2c(=O)c1S(=O)(=O)Nc1ccc(N2CCOCC2)cc1 -12.5%
Cc1cc(=O)[nH]c2nnc(SCc3c(F)cccc3Cl)n12 -3.49%
CCOc1ccc2c(c1)sc1nc(=O)n(-c3ccc(Cl)c(Cl)c3)c(=O)n12 24.1%
Cc1ccc(OCc2nc(-c3ccc(C(=O)N4CCN(c5cccc(C(F)(F)F)c5)CC4)cc3)oc2C)cc1 -28.6%
CCOC(=O)CCn1cnc2onc(-c3cc(OC)ccc3Cl)c2c1=O -14.7%
COc1ccc(N(CC(C)C)S(=O)(=O)c2nnc(NC(=O)c3cccs3)s2)cc1 -29.2%
CSc1cccc(NC(=O)C2CCN(S(=O)(=O)c3ccc4c(c3)CCCN4C(=O)C3CCC3)CC2)c1 -20.8%
CCCCCCCCCCCCCCC[C@H](O)[C@@H](N)CO -6.98%
Cc1cc(C)n(-c2nc3cc(Cl)ccc3nc2Nc2ccc(C)c(F)c2)n1 13.2%
CCn1ccc2cc(S(=O)(=O)N3CCC(C(=O)NCc4cccc(Cl)c4)CC3)ccc21 -15.9%
Cc1cc(C)c(NC(=O)c2cc(S(=O)(=O)NCCC3=CCCCC3)ccc2F)c(C)c1 -34.5%
Cc1ccc(-n2ncc(C(=O)NCCN3CCCC3)c2C2CCN(C(=O)OC(C)(C)C)CC2)cc1 -13.2%
CCOc1ccc(N(C)S(=O)(=O)c2c(C(=O)N3CCC(C)CC3)c(C)n(C)c2C)cc1 -15%
Cc1cccc(-n2ncc(C(=O)N3CCN(Cc4ccccc4)CC3)c2C2CCN(C(=O)OC(C)(C)C)CC2)c1 -28.3%
Cc1ccc(NC(=O)Cn2nnc3sc4c(c3c2=O)CCC(C)C4)cc1 (configuration not stated) -11%
COc1ccc(Cn2c(CCC(=O)Nc3ccc(C)cc3)nc3cccnc32)cc1 -22.7%
CCOc1ccccc1NC(=O)N1c2ccccc2Sc2ccccc21 -24.1%
COCCCn1c(=N)c(C(=O)NCc2ccco2)cc2c(=O)n3cccc(C)c3nc21 -6.12%
CCc1ccccc1NC(=O)Nc1cc(C(=O)NCc2cccc(F)c2)ccc1N1CCCC1 -0.164%
CCOC(=O)c1c(NC(=O)COc2ccc(Br)cc2)sc2c1CCCC2 6.5%
CCc1ccc(S(=O)(=O)c2nnn3c2nc(Nc2ccc(C)c(Cl)c2)c2sccc23)cc1 -4.27%
O=C(Cn1ncn2nc(-c3cccs3)cc2c1=O)NCc1ccc(Cl)cc1 4.38%
Cc1oc(-c2cccc(Cl)c2)nc1CN1CCCC(C(=O)NCCc2ccc(Cl)cc2)C1 (configuration not stated) -41.8%
CCn1c(SCc2cccc(Br)c2)nnc1-c1nonc1NC(C)=O -33.1%
CC(C)CNC(=O)C(=O)Nc1c2c(nn1-c1ccccc1)CS(=O)(=O)C2 -13.4%
CC(=O)Nc1cc(C(=O)NCc2ccc(C)cc2)ccc1S(=O)(=O)c1ccc(Cl)cc1 -18.7%
CCOC(=O)CN1C(C(=O)c2ccccc2)=C(OC(=O)C(C)(C)C)c2ccccc2S1(=O)=O -17.9%
CSc1cccc(NC(=O)Cn2c(=O)n(Cc3ccccc3)c(=O)c3sc4ccccc4c32)c1 -11.9%
O=C(CSc1oc(-c2ccccc2)nc1S(=O)(=O)c1ccc(Cl)cc1)NC1CCCCC1 8.61%
CCCc1nnc(NC(=O)Cc2coc3ccc(C(C)C)cc23)s1 -9.55%
COc1ccc(-n2nnc(-c3nsc(NC(=O)c4ccc(C)c(C)c4)n3)c2C)cc1Cl -3.23%
CC(C)COC(=O)Cn1nnc2sc(-c3ccccc3)cc2c1=O -3.79%
COCCCNC(=O)CSc1nc2cc3c(cc2c(=O)n1CCCCCC(=O)NCc1ccc(OC)cc1)OCO3 -11.4%
Cc1cc(C)c(NS(=O)(=O)c2cc(-c3onc(C)c3C)ccc2C)c(C)c1 -26.1%
CC1CCN(C(=O)c2ccc3c(c2)N(Cc2ccccc2)C(=O)c2ccccc2S3(=O)=O)CC1 -25.5%
Cc1ccc(NC(=O)c2cnc(SCC(=O)N3CCOCC3)n(C)c2=O)cc1C -36.9%
O=C(CN1CCCN(S(=O)(=O)c2ccc(Br)cc2)CC1)Nc1cccc(C(F)(F)F)c1 -31.9%
O=C(Nc1cccc(C(F)(F)F)c1)c1cc(S(=O)(=O)N2CCCC2)c[nH]1 -14.9%
Cc1cccc(N2CCN(C(=O)c3ccc4c(Cl)c5c(nc4c3)CCCC5)CC2C)c1 (configuration not stated) -12.1%
COc1ccc(NC(=O)Cn2c(=O)c3cc(Cl)ccc3n3nncc23)cc1 -18.4%
CC1(C)OC[C@@H]2O[C@@]3(C(=O)O)OC(C)(C)O[C@H]3[C@@H]2O1 -5.25%
CCOc1ccc(C(=O)c2cn(CC(=O)Nc3ccc4c(c3)OCCO4)c3ccc(F)cc3c2=O)cc1 -13.7%
CC(C)CCNS(=O)(=O)c1ccc(N2CCCCS2(=O)=O)cc1 -20.9%
COC(=O)CN1C(=O)CSc2ccc(S(=O)(=O)Nc3ccc(C(C)=O)cc3)cc21 -13%
